Laboratory results published in PubChem BioAssay AID1347165 (National Center for Advancing Translational Sciences (NCATS), 2019).
The whole screen tested about 220,000 compounds, of which about 5,700 (2.6%) were called active. The inconclusive results got no clear call from the source; some entries with a clear call stand among them for comparison. Calls come from the whole dose curve; as a rule, active = well fitted inhibition curve with a large enough effect; inconclusive = small, poorly fitted or top-dose-only effect; inactive = no such curve, though single readings can be large or run the other way. Potencies of inconclusive entries are doubtful fits and often do not repeat.

target: Lysine-specific demethylase 5B (Homo sapiens) (UniProt Q9UGL1); assay: Primary screen for KDM5B Histone Demethylases FDH-coupled qHTS; details: FDH-coupled NADH fluorescence (FDH is formaldehyde dehydrogenase); activity change, negative = inhibition: at 57.7 µM (top of the series) unless noted; note: nearly all actives have a fitted effect of over 70% in size; for activity change, negative = inhibition: 0% is about no effect
Method in brief: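 Compound dilutions met 200 nM (final) KDM5BΔAP for 10 min at room temperature before substrate addition. The substrate mix held 12.5 µM H3K4me3 with cofactors 25 µM α-ketoglutarate and 50 µM Fe²⁺. NADH signal gain over 30 min defined activity.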
Potency is the fitted concentration of half-maximal effect; tags give direction and shape of the fitted curve.

UniProt Q9UGL1, sequence (Q9UGL1 whole entry, looked up): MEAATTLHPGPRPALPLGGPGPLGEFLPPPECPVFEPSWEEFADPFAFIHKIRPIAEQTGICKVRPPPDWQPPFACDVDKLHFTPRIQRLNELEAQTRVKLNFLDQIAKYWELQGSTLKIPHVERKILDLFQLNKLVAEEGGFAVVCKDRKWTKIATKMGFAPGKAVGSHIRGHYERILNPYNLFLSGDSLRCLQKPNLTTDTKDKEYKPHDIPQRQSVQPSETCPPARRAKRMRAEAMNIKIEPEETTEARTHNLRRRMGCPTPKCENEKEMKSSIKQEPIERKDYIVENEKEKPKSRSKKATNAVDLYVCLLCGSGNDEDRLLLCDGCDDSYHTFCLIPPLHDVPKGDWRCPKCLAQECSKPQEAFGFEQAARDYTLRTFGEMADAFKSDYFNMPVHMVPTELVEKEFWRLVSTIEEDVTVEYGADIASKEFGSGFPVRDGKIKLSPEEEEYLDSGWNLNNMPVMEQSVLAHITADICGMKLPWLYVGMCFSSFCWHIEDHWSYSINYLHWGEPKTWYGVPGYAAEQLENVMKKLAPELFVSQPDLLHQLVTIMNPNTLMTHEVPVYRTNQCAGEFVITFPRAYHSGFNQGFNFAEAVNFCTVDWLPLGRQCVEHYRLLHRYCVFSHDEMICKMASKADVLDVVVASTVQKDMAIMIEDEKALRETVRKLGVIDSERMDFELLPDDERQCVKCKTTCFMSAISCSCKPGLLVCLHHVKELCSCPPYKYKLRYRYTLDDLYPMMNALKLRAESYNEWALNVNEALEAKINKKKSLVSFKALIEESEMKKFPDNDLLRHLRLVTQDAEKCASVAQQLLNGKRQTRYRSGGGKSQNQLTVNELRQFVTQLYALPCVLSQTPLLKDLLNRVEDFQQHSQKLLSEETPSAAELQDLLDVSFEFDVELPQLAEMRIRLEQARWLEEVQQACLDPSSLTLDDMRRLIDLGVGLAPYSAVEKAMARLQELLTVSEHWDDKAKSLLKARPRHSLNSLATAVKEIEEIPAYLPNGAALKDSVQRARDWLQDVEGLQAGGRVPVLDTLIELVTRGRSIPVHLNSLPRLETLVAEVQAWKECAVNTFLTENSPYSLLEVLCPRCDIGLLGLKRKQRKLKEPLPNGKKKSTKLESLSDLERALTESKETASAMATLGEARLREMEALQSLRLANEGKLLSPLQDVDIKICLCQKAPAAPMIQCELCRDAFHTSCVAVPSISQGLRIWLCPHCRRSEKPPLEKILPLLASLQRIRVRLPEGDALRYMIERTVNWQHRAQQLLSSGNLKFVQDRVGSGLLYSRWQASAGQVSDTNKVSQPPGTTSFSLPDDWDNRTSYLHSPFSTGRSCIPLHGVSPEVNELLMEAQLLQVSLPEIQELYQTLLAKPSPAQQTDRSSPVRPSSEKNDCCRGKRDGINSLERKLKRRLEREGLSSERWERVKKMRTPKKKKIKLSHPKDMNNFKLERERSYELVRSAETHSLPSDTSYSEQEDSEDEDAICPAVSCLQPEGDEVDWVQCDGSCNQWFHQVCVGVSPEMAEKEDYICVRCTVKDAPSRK

Q: With `Cc1cccc(-n2nnnc2SCC(=O)N(C)c2ccccc2C(=O)NCc2ccco2)c1C` as the compound, how does the “activity change, negative = inhibition” value read?
A: Its value is inactive: -1.36%.

Q: With `Cn1cc(C(c2ccccc2)c2ccc(Cl)s2)c2ccccc21` (stereo unspecified) as the compound, how does the Potency read?
A: Its Potency is inconclusive: 6.31 µM [inhibitor, partial curve, poor fit].

Q: For `Cc1sc2ccn(Cc3ccc(F)cc3)c(=O)c2c1C(=O)NCc1ccccn1`, which Potency is on record?
A: The Potency was inconclusive: 15.8 µM [inhibitor, partial curve].

Q: How did the “activity change, negative = inhibition” value turn out when `CCOc1ccc(-c2nc(Cn3nnc(C(=O)NCc4ccc(Cl)cc4)c3N)c(C)o2)cc1OC` was run?
A: Its value is inactive: 8.05%.

Q: How did the Potency turn out when `O=C(NC1CCN(c2cc(-c3cccs3)[nH]n2)C1)c1ccc(Br)o1` (stereo unspecified) was run?
A: Its Potency is inconclusive: 14.1 µM [inhibitor, partial curve].

Q: How did the Potency turn out when `COCc1ccc(C(=O)NCc2cc(C)cc3c(C)c(C)[nH]c23)o1` was run?
A: Its Potency is inconclusive: 10 µM [inhibitor, single point].

Q: For `COc1ccccc1Nc1nc(N)c(C(=O)c2ccc(Cl)cc2)s1`, which “activity change, negative = inhibition” value is on record?
A: The value was inactive: -4.01%.

Q: With `NNc1ccc(S(=O)(=O)c2ccc(NN)cc2)cc1` as the compound, how does the Potency read?
A: The Potency was inconclusive: 39.8 µM [inhibitor, single point].

Q: With `CCCCN(C)CC(O)Cn1cc(/C=C/C(=O)c2ccc(C)cc2)c2ccccc21` (stereo unspecified) as the compound, how does the Potency read?
A: The Potency was inconclusive: 25.1 µM [inhibitor, partial curve, poor fit].

Q: How did the Potency turn out when `CCNC(=O)NC(=O)CNc1ccccc1N(C)Cc1ccccc1` was run?
A: The Potency was inconclusive: 39.8 µM [inhibitor, single point].

Q: For `Cn1ccnc1C(=O)c1cccc(NC(=O)C(=O)NCc2ccccc2)c1`, which “activity change, negative = inhibition” value is on record?
A: The value was inactive: 0.599%.

Q: How did the Potency turn out when `COc1ccc(NC(=O)c2c(NCc3cccs3)sc3c2CCCC3)cc1` was run?
A: Its Potency is inconclusive: 28.2 µM [inhibitor, partial curve, poor fit].

Q: How did the Potency turn out when `COc1ccc(-c2c(C)c3ccc(OC)cc3oc2=O)cc1` was run?
A: Its Potency is inconclusive: 28.2 µM [inhibitor, partial curve, poor fit].

Q: With `Cc1nnc(NC(=O)C2c3ccccc3C(=O)N(Cc3ccccc3)C23CCCC3)s1` (stereo unspecified) as the compound, how does the “activity change, negative = inhibition” value read?
A: Its value is inactive: 14.4%.

Q: With `CCCCCC(=O)N1CCC(O)(c2csc(CN3CCc4ccccc4C3)n2)CC1` as the compound, how does the Potency read?
A: Its Potency is inconclusive: 35.5 µM [inhibitor, single point].

Q: For `CCN(CC)Cc1cnc2c(C(=O)N[C@H](C(N)=O)C(C)C)cnn2c1`, which Potency is on record?
A: Its Potency is inconclusive: 12.6 µM [inhibitor, partial curve].

Q: How did the Potency turn out when `COc1cc2ccccc2cc1C(=O)Nc1ccc2oc(-c3ccc(Cl)cc3)nc2c1` was run?
A: The Potency was inconclusive: 15.8 µM [inhibitor, partial curve, poor fit].

Q: Which Potency does the source give for `Cc1ccccc1C(=O)Nc1ccc2nc(N3CCN(C4CCCCC4)CC3)cc(C(=O)O)c2c1` here?
A: Its Potency is inconclusive: 20 µM [inhibitor, partial curve, poor fit].

Q: `CC(C)c1csc(CN2CCCC(CNC(=O)c3cccc4ccccc34)C2)n1` (stereo unspecified) was tested. Which Potency did it give?
A: Its Potency is inconclusive: 2.24 µM [inhibitor, full curve, poor fit].

Q: For `Cc1ccc(C(C)NC(=O)c2cn(CCN3CCNCC3)nn2)cn1` (stereo unspecified), which “activity change, negative = inhibition” value is on record?
A: The value was inactive: -18%.

Q: With `COc1ccccc1N1CCN(C(=O)Nc2cn(CC(C)C)c(=O)c3ccccc23)CC1` as the compound, how does the Potency read?
A: The Potency was inconclusive: 28.2 µM [inhibitor, partial curve, poor fit].

Q: With `CCCCNc1oc(/C=C/c2cccs2)nc1C#N` as the compound, how does the Potency read?
A: The Potency was inconclusive: 25.1 µM [inhibitor, partial curve, poor fit].

Q: For `CNC(=O)c1cc(-c2ccccc2F)cc2c1OCCN2Cc1cccnc1`, which Potency is on record?
A: The Potency was active: 39.8 µM.

Q: How did the “activity change, negative = inhibition” value turn out when `O=C(COc1ccccc1)N1CCC([C@@H]2CNC[C@H]2CO)CC1` was run?
A: Its value is inactive: 4.22%.

Q: For `CCN1CCN(c2nc3c(c(=O)[nH]c(=O)n3C)n2CCc2ccccc2)CC1`, which “activity change, negative = inhibition” value is on record?
A: The value was inactive: 9.84%.

Q: `Cc1ccc(CN2CC[C@@](C)(O)[C@H](N3CCCC3)C2)o1` was tested. Which Potency did it give?
A: The Potency was inconclusive: 28.2 µM [inhibitor, partial curve].

Q: For `Cn1cc(-c2cc3n(n2)CCC(=O)N3CC(=O)NCc2ccc(Cl)cc2)c2ccccc21`, which Potency is on record?
A: The Potency was inconclusive: 17.8 µM [inhibitor, partial curve, poor fit].

Q: `C[S+](=O)([O-])c1cccc(-c2nccc3c(=O)cc(N4CCOCC4)oc23)c1` was tested. Which Potency did it give?
A: The Potency was active: 28.2 µM.

Q: How did the Potency turn out when `Cc1cc(C)cc(C(=O)NCCn2ccn3nc(-c4ccc(C)cc4C)cc3c2=O)c1` was run?
A: The Potency was active: 22.4 µM.

Q: `CCC(C)[C@H](NC(=O)Nc1ccc2oc(-c3cccnc3)nc2c1)C(=O)OC` (stereo partly specified) was tested. Which Potency did it give?
A: The Potency was inconclusive: 5.62 µM [inhibitor, full curve, poor fit].

Q: How did the Potency turn out when `Cc1ccc(CCNC(=O)c2c(C)oc3nc(C)nc(N4CCOCC4)c23)cc1` was run?
A: The Potency was inconclusive: 15.8 µM [inhibitor, partial curve, poor fit].

Q: Which Potency does the source give for `CCN1CC(CNC(=O)CC2c3ccccc3CCc3ccccc32)CC1=O` (stereo unspecified) here?
A: The Potency was inconclusive: 3.16 µM [inhibitor, single point].

Q: `CS(=O)(=O)N1CCN(c2ccc(NCc3ccccc3)nn2)CC1` was tested. Which Potency did it give?
A: The Potency was inconclusive: 22.4 µM [inhibitor, partial curve, poor fit].

Q: `CCN(CCCNC(=O)c1cc(Nc2ccc(OC)cc2OC)nc2ccccc12)c1cccc(C)c1` was tested. Which Potency did it give?
A: The Potency was inconclusive: 14.1 µM [inhibitor, partial curve, poor fit].

Q: For `CNC(=O)C1(N2CCC[C@H]2C(=O)NCCNC(C)=O)CCCCC1`, which Potency is on record?
A: Its Potency is inconclusive: 20 µM [inhibitor, partial curve, poor fit].

Q: Which Potency does the source give for `Cc1noc(C)c1-c1cc2c(cc(C)n2CCN(C)C)c(-c2cccnc2)n1` here?
A: The Potency was active: 31.6 µM.

Q: `O=C(c1ccco1)N1CCN(C(=O)c2cc3c(s2)CN(C2CC2)C3)CC1` was tested. Which “activity change, negative = inhibition” value did it give?
A: The value was inactive: -10.3%.

Q: With `Cc1ccc(-n2ncc3c(N(CC(C)C)CC(C)C)ncnc32)c(C)c1` as the compound, how does the Potency read?
A: Its Potency is inconclusive: 25.1 µM [inhibitor, partial curve, poor fit].

Q: With `Cc1cc(C)cc(NC(=O)c2cc(C)nc3ccccc23)c1` as the compound, how does the “activity change, negative = inhibition” value read?
A: Its value is inactive: 3.85%.

Q: Which Potency does the source give for `CCN1CCC2(CC1)Oc1c(OC)cccc1C1CC(c3ccc4c(c3)OCCO4)=NN12` (stereo unspecified) here?
A: The Potency was inconclusive: 39.8 µM [inhibitor, single point].

Q: For `CC(C)(C)c1ccc(C(=O)OCC(=O)N2CCC(c3ccccc3)=N2)cc1`, which Potency is on record?
A: Its Potency is inconclusive: 28.2 µM [inhibitor, partial curve, poor fit].

Q: With `CC(C)(C(=O)N1CCN(Cc2ccccc2)CC(O)C1)c1ccccc1` (stereo unspecified) as the compound, how does the Potency read?
A: Its Potency is inconclusive: 5.62 µM [inhibitor, full curve].

Q: `O=C1CC(c2ccccc2)N(Cc2ccncc2)CCCN(C(=O)CC2CCCCC2)CCN1` (stereo unspecified) was tested. Which Potency did it give?
A: The Potency was inconclusive: 11.2 µM [inhibitor, partial curve, poor fit].

Q: Which Potency does the source give for `CCN(CC)CCn1c(-c2ccccc2)csc1=Nc1ccccc1` here?
A: The Potency was inconclusive: 22.4 µM [inhibitor, single point].

Q: Which “activity change, negative = inhibition” value does the source give for `CC1=C[C@@H](CNC(=O)CN(C)C)[C@H](C(C)C)C[C@H]1Cc1nc2ccc(C)cc2[nH]1` here?
A: The value was inactive: -18.8% [at 86.2 µM].

Q: Which Potency does the source give for `Cc1noc(C)c1-c1cc2c(cc(C)n2CCN(C)C)c(-c2ccnn2C)n1` here?
A: The Potency was active: 35.5 µM.

Q: For `Cc1ccccc1C(=O)N1CCCN(c2nc3ncccc3o2)CC1`, which Potency is on record?
A: The Potency was inconclusive: 31.6 µM [inhibitor, single point].

Q: Which “activity change, negative = inhibition” value does the source give for `CC(C)(C)CNC(=O)c1nc[nH]c1C(=O)N1CCOCC1` here?
A: The value was inactive: 12.8%.

Q: For `O=C(O)c1cc(Nc2nc(-c3ccccc3)cs2)ccc1O`, which Potency is on record?
A: The Potency was inconclusive: 28.2 µM [inhibitor, partial curve, poor fit].

Q: How did the “activity change, negative = inhibition” value turn out when `O=C(CSc1n[nH]c(-c2ccccc2F)n1)Nc1ccc(N2CCCCCC2)cc1` was run?
A: The value was inactive: -4.6%.

Q: `O=C(CSc1nc2c([nH]c3ccccc32)c(=O)n1-c1ccccc1)N1CCOCC1` was tested. Which Potency did it give?
A: Its Potency is inconclusive: 35.5 µM [inhibitor, single point].

Q: For `COc1ccccc1C(=O)Oc1ccc(F)cc1C(=O)/C=C/c1ccc(Cl)cc1`, which “activity change, negative = inhibition” value is on record?
A: Its value is inactive: 13.8%.

Q: Which Potency does the source give for `COc1ccc(-c2ncc3c(n2)OCCN(Cc2ccccc2)C3=O)cn1` here?
A: The Potency was active: 28.2 µM.

Q: For `O=C(Cc1c[nH]c2ccccc12)NCc1cccnc1N1CCOCC1`, which Potency is on record?
A: The Potency was inconclusive: 6.31 µM [inhibitor, single point].

Q: `COc1ccccc1NC(=O)c1cc2c(=O)n3ccccc3nc2n1Cc1ccccc1` was tested. Which Potency did it give?
A: The Potency was inconclusive: 1.78 µM [inhibitor, full curve, poor fit].

Q: `CC(C(=O)c1ccc(Cl)cc1)C1(O)C(=O)Nc2ccc(Br)cc21` (stereo unspecified) was tested. Which “activity change, negative = inhibition” value did it give?
A: The value was inactive: -6.44%.

Q: For `Cc1[nH]c2c(C)ccc(C)c2c1CC(=O)N1Cc2ccccc2C(O)C1` (stereo unspecified), which Potency is on record?
A: Its Potency is inconclusive: 22.4 µM [inhibitor, partial curve, poor fit].

Q: For `CC(C)CN1CCc2[nH]cnc2C12CCN(C(=O)c1n[nH]c3c1CCC3)CC2`, which Potency is on record?
A: Its Potency is inconclusive: 22.4 µM [inhibitor, partial curve, poor fit].

Q: For `O=C(O)c1ccc2c(=O)n3c(nc2c1)/C(=C/c1ccc(Cl)c(Cl)c1)CC3`, which Potency is on record?
A: The Potency was inconclusive: 25.1 µM [inhibitor, partial curve, poor fit].

Q: How did the “activity change, negative = inhibition” value turn out when `COc1ccc(C(=O)N2CCc3nc(C)nc(-c4ccc(OC)cc4)c3CC2)cc1` was run?
A: Its value is inactive: -13.6%.

Q: With `O=C(Nc1cccc(Cl)c1F)N1CCC(OC2CCN(Cc3ccccc3)CC2)CC1` as the compound, how does the “activity change, negative = inhibition” value read?
A: Its value is inactive: -5.86%.

Q: How did the Potency turn out when `CCn1c(C)c(C)c2cc(C(=O)NCc3ccc(OC)cc3OC)ccc21` was run?
A: Its Potency is inconclusive: 2 µM [inhibitor, partial curve, poor fit].

Q: For `CCN(CC)Cc1cnc2c(C(=O)N3CCCC3c3ccccn3)cnn2c1` (stereo unspecified), which Potency is on record?
A: Its Potency is inconclusive: 22.4 µM [inhibitor, single point].

Q: Which “activity change, negative = inhibition” value does the source give for `COC(=O)CNC(=O)Nc1cc(C(=O)NCc2ccc(C(C)C)cc2)ccc1N1CCCC1` here?
A: The value was inactive: -22.8%.

Q: For `O=C(Nc1ccccc1)N1CCC(Oc2ccccc2-c2nc(-c3ccccc3)no2)C1` (stereo unspecified), which Potency is on record?
A: Its Potency is active: 31.6 µM.

Q: With `COc1ccc(-c2cc(N3CCCC(NC(=O)C4CCCC4)C3)n[nH]2)cc1` (stereo unspecified) as the compound, how does the Potency read?
A: The Potency was inconclusive: 35.5 µM [inhibitor, partial curve, poor fit].
